# Measured values published in the supplement of paper PMC10126150.
# Sequences with one replicate were seen in a single cluster, so their values are uncertain.
# Test system: ATP
# Assay: switch fluorescence ratio, 500 uM ATP over buffer (Cy3 cluster intensity, sum of 5 cycles each) (fold (ratio)); higher = stronger signal-on switching upon ATP binding; sequences stand for … in TCGTCGGCAGCGTCAGATGTGTATAAGAGACAGTTTTTTTTTTTTTTTTTTTTTTTTT…TC
# Settings: aptamer strand: ATP DNA aptamer (quencher-CACCTGGGGGAGTATTGCGGAGGAAGG + anchor), 100 nM annealed; ATP concentration: 500 uM; one replicate
# Outline: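 Imaging in selection buffer was followed by imaging after 15 min with 500 uM ATP at 22 °C, for Cy3-labelled switching-strand clusters annealed to 100 nM quencher-labelled ATP aptamer on a modified Illumina MiSeq flow-cell. Five of these buffer/ATP cycles ran, separated by NaOH stripping and re-annealing. The fluorescence ratio per cluster is summed target-cycle over summed buffer-cycle Cy3 intensity, averaged per switch-domain sequence; clusters outside 100-1000 RFU were removed.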
# 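Further: ATP exposure 15 min at 22 °C before imaging.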
row,Sequence,switch fluorescence ratio
1,AACCTTGTAC,1.25
2,AACCTTTTAT,1.03
3,AACGAACTC,1.31
4,AACGAAGGAG,0.978
5,AACGACCATA,1.18
6,AACGAGTACC,1.07
7,AACGATTATG,1.04
8,AACGCAAGTT,1.02
9,AACGCCAGCC,1.17
10,AACGCCCTCT,1.02
11,AACGCCGCAC,3.21
12,AACGCCGCTC,1.59
13,AACGCGGTTG,1.02
14,AACGCTCTGG,0.97
15,AACGCTGTG,0.974
16,AACGGAAGAA,1.1
17,AACGGAAGTC,1.01
18,AACGGAAGTT,1.03
19,AACGGACTCT,1.19
20,AACGGAGATA,0.965
21,AACGGATAGA,0.97
22,AACGGATTGG,0.955
23,AACGGCAGAC,1.52
24,AACGGCTTTG,1.01
25,AACGGGTCG,0.97
26,AACGGTATCG,0.97

row,Sequence,switch fluorescence ratio
1,AACGGTGATG,0.967
2,AACGTAAAAG,1.05
3,AACGTAATTA,1.22
4,AACGTAGGCT,1.02
5,AACGTCGCTC,1.05
6,AACGTGACTT,1.23
7,AACGTGAGGT,1.03
8,AACGTGGGA,1.01
9,AACGTGGGGT,0.983
10,AACGTGTGTA,0.997
11,AACGTTAAAG,1.05
12,AACGTTATAT,1.05
13,AACGTTGT,1.02
14,AACTAAACCA,1.05
15,AACTAATAAT,1.02
16,AACTAATATT,1.04
17,AACTAATTAA,0.982
18,AACTACATGG,1.01
19,AACTAGGA,1.02
20,AACTAGTATG,0.984
21,AACTCACCC,1.2
22,AACTCATTGC,1.07
23,AACTCGCATC,1.78
24,AACTCGGTG,0.99
25,AACTCTATCG,1.03
26,AACTCTGCC,1.28

row,Sequence,switch fluorescence ratio
1,AACTCTTTTT,1.02
2,AACTGAAAGA,0.978
3,AACTGATCAA,1.02
4,AACTGCCTGA,1.04
5,AACTGCTAAG,0.999
6,AACTGCTCGG,0.969
7,AACTGGCTTC,0.989
8,AACTGGTATC,1.01
9,AACTGGTGGA,1.05
10,AACTGTGGGA,1.03
11,AACTGTTCAC,1.06
12,AACTTCGTAA,1.46
13,AACTTCTACC,1.14
14,AACTTTACAA,1.12
15,AACTTTCGG,0.989
16,AACTTTGAAT,0.983
17,AACTTTTCAA,0.977
18,AAGAAACTTT,1.02
19,AAGAAAGCTT,0.954
20,AAGAAATCCC,1.07
21,AAGAACAAGC,1.02
22,AAGAAGAATC,0.984
23,AAGAAGCGAG,1.4
24,AAGAAGTGCG,1.06
25,AAGAATCGGA,1.01
26,AAGAATTAT,1

row,Sequence,switch fluorescence ratio
1,AAGAATTCCG,0.998
2,AAGAATTGCA,0.977
3,AAGAATTTGG,0.932
4,AAGACACGGA,0.993
5,AAGACAGCTT,0.947
6,AAGACGCCCA,1.14
7,AAGACGGTCG,1.32
8,AAGACTCTGT,1.03
9,AAGACTGCGA,1.03
10,AAGACTTATC,1
11,AAGAGCCTTC,1.05
12,AAGAGGAGGT,0.96
13,AAGAGGTTGT,0.954
14,AAGAGTATGT,1.04
15,AAGAGTCCTT,1
16,AAGAGTGTCA,0.977
17,AAGAGTTATT,1.02
18,AAGAGTTGTT,0.921
19,AAGATAACAT,1.01
20,AAGATAATTT,0.985
21,AAGATAGTAG,0.982
22,AAGATAGTGA,1.03
23,AAGATCAGGG,0.963
24,AAGATCTGGG,1
25,AAGATGGGAC,0.965
26,AAGATGTTTC,0.995

row,Sequence,switch fluorescence ratio
1,AAGATTAAGG,0.911
2,AAGATTGAGG,0.964
3,AAGCAACCGG,1.01
4,AAGCACAAAT,1.12
5,AAGCACCGTC,1.04
6,AAGCAGTGGG,0.946
7,AAGCATTATG,1.03
8,AAGCCAGGCA,1.04
9,AAGCCATGTT,1.02
10,AAGCCCAGGA,1.14
11,AAGCCCGCGC,0.983
12,AAGCCCGTGC,0.931
13,AAGCCGATGA,1.05
14,AAGCGAACGA,1.05
15,AAGCGACTAG,1
16,AAGCGATCAT,0.941
17,AAGCGATCTG,0.995
18,AAGCGCGAAA,1.03
19,AAGCGTCTAG,1.05
20,AAGCTAAAGA,0.992
21,AAGCTATCCA,1.03
22,AAGCTCTTGC,1.01
23,AAGCTGCGGC,0.986
24,AAGCTGGCAG,1.02
25,AAGCTTATAC,4.62
26,AAGCTTCGAG,1.01

row,Sequence,switch fluorescence ratio
1,AAGGAACTCT,0.987
2,AAGGAAGC,1
3,AAGGAAGTAT,1.03
4,AAGGAATAAT,0.977
5,AAGGACCATG,0.985
6,AAGGACTAGT,0.998
7,AAGGAGCCGC,1.02
8,AAGGAGGATC,0.992
9,AAGGAGGC,0.984
10,AAGGAGGTGG,1.1
11,AAGGAGTATG,0.957
12,AAGGAGTGCG,0.992
13,AAGGATATT,0.969
14,AAGGCAACTA,1.03
15,AAGGCACCGG,1.05
16,AAGGCACGAC,1.01
17,AAGGCACGCA,0.993
18,AAGGCATGT,0.996
19,AAGGCCACAT,1.03
20,AAGGCCCGGT,0.987
21,AAGGCCGTA,0.971
22,AAGGCCTAGT,0.982
23,AAGGCGTATA,0.998
24,AAGGCGTCCC,1.01
25,AAGGCTACAG,1.05
26,AAGGCTACCG,1

row,Sequence,switch fluorescence ratio
1,AAGGCTATTG,0.989
2,AAGGCTGGAC,0.988
3,AAGGGAATCC,0.982
4,AAGGGACATA,1.02
5,AAGGGAGTAG,0.963
6,AAGGGCCTGA,1.01
7,AAGGGGCCCA,1.05
8,AAGGGGTGCC,0.976
9,AAGGGGTT,1.02
10,AAGGTAAACG,1.03
11,AAGGTAACCG,1.02
12,AAGGTAACGC,1.07
13,AAGGTAAGTG,0.989
14,AAGGTACTAA,1.04
15,AAGGTAGTAT,1.01
16,AAGGTCATC,1.02
17,AAGGTCTGCG,1.07
18,AAGGTCTTTT,0.97
19,AAGTAAAGGC,1.22
20,AAGTACTATT,1.3
21,AAGTACTGTA,1.26
22,AAGTAGCATT,0.964
23,AAGTAGGGTT,1.12
24,AAGTAGGTAA,1.22
25,AAGTATACTG,1.05
26,AAGTATGCGT,1.03

row,Sequence,switch fluorescence ratio
1,AAGTATTTAA,0.978
2,AAGTCAATAT,1.41
3,AAGTCACGGC,1.07
4,AAGTCCCG,0.991
5,AAGTCCTGTG,0.986
6,AAGTCGGACC,0.986
7,AAGTCGTACC,0.974
8,AAGTGCAAAG,1.01
9,AAGTGCATC,1.01
10,AAGTGCATCC,1.04
11,AAGTGCCGAT,1.01
12,AAGTGGAGCC,0.932
13,AAGTGGCCGA,0.968
14,AAGTGGTAGC,1.02
15,AAGTGTAATG,0.982
16,AAGTGTACCT,1.11
17,AAGTGTAGCC,1.03
18,AAGTGTCCGT,0.972
19,AAGTGTTCGC,0.995
